From paper PMC4336329 (PLoS ONE, 2015)
Hit rate of the full screen: of about 310,000 compounds, about 2,200 (0.71%) showed an effect of 50% or more. Effects have a minus sign here. Some of the results follow.

molecular target: human ether-à-go-go-related gene (hERG) potassium channel (human, UniProt Q12809); test: primary screen, population patch clamp on CHO cells stably expressing hERG
Sequence (Q12809 whole entry, looked up): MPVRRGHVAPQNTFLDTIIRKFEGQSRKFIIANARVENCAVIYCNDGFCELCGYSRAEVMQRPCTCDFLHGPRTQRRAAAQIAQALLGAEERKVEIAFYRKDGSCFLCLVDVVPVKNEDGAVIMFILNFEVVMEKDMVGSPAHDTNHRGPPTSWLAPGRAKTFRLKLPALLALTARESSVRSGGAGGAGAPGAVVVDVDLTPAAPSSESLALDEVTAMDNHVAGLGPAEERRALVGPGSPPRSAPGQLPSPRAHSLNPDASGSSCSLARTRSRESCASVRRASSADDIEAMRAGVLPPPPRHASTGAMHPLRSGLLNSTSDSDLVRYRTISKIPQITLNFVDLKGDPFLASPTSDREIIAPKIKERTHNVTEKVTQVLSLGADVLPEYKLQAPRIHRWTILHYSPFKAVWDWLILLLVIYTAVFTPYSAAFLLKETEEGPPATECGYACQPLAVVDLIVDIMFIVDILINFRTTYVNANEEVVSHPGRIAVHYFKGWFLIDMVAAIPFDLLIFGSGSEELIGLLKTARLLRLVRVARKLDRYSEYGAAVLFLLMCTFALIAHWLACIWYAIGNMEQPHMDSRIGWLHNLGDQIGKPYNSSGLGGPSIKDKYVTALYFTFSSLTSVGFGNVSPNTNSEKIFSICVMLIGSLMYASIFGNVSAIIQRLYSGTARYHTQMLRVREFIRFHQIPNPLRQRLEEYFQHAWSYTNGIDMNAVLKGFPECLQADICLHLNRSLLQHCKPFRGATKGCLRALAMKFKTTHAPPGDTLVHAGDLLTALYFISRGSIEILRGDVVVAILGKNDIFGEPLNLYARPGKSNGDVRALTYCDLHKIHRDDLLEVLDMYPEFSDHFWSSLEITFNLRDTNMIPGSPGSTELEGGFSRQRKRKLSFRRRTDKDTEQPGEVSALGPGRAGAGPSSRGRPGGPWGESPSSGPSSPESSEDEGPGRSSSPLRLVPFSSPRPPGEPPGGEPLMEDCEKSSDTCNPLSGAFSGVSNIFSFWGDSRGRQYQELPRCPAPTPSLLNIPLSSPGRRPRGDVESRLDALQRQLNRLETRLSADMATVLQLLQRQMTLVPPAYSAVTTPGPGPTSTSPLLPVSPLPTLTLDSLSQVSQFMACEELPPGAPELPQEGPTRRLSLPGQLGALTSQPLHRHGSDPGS

Structure (SMILES)	hERG current change (%, negative = inhibition) at 1uM [%]
Cc1ccccc1CN(C)CC(=O)NC(C)CCc1ccccc1 (stereo not drawn)	3.54
COc1ccc(N2CCN(C(=O)CCN3C(=S)NC(C)(C)CC3C)CC2)cc1 (stereo not drawn)	21.8
COc1ccc(CCNc2c(C)c(C)nc3ncnn23)cc1	-4.13
COc1ccc(CNC(=O)COC(=O)c2cccc(S(=O)(=O)N3CCOCC3)c2)cc1	-2.3
CC1=C(C(N)=O)C(c2ccncc2)n2nc(-c3ccccc3Cl)nc2N1 (stereo not drawn)	12.7
N#CC1=C2SCN(Cc3ccccc3)CN2C(=O)CC1c1cccs1 (stereo not drawn)	10.2
CCn1c(=O)c(C(=O)Nc2ccccc2)c(O)c2ccccc21	11.4
CCc1ccc(NC(=O)CN(c2ccc(OC)cc2)S(=O)(=O)c2c(C)nn(C)c2C)cc1	21.3
COc1cc(-c2nc(S(=O)(=O)c3ccc(C)cc3)c(N3CCOCC3)o2)cc(OC)c1OC	8.44
CCCCOC(=O)n1c(=O)oc2ccccc21	7.17
COc1nc(N/N=C/c2ccc(-c3ccccc3[N+](=O)[O-])o2)nc(N2CCOCC2)n1	8.99
Cc1ccc(C(=O)Nc2ccccc2N2CCN(C(=O)C(C)C)CC2)cc1	1.8
c1ccc(CCN2CCC3(CC2)OCCO3)cc1	13.2
CCC(COC(=O)NC)NC(=O)Oc1cccc(C)c1 (stereo not drawn)	4.35
COc1cccc(-c2c[nH]c(=O)[nH]c2=O)c1	12.9
CCN(CC)CCCn1c2c(c(SCC(=O)Nc3cc(C)on3)nc1=O)CCC2	11.4
CCCCC(C(=O)NC(C)c1ccccc1)C(=O)NC(C)c1ccccc1 (stereo not drawn)	13.6
CN1C(=O)[C@@H]2[C@H](C1=O)[C@@H]1C(=O)Nc3ccccc3C(=O)N1[C@@H]2c1ccc(Br)cc1	-16.7
O=C(CN1C(=O)COc2ccccc21)c1ccc(Cl)cc1	-9.7
O=C(Nc1ccc(Cl)cc1C(F)(F)F)C(Sc1nnc(-c2cccs2)o1)c1ccccc1 (stereo not drawn)	0.359
CC1CC(=O)N(C)c2cc([N+](=O)[O-])ccc2N1 (stereo not drawn)	-0.923
COCCCNC(=S)Nc1ccc(N2CCCCC2)cc1	1.68
NS(=O)(=O)c1ccc(NC(=S)NC2CCCC2)cc1	11.8

Structure (SMILES)	hERG current change (%, negative = inhibition) at 1uM [%]
COC(=O)/C(N=Nc1c(C)n(C)n(-c2ccccc2)c1=O)=C(\C)O	10.8
O=C(NNc1c([N+](=O)[O-])cc(C(F)(F)F)cc1[N+](=O)[O-])c1ccco1	13.7
CSc1c(-c2ccccc2)nc2ccccc2c1C(=O)O	15.7
Cc1ccc(N(CC(O)CN2CCCC2)S(=O)(=O)c2ccccc2)cc1 (stereo not drawn)	-47.4
Cc1ccccc1CC1(CO)CCCN(C(=O)CCC(F)(F)F)C1 (stereo not drawn)	9.79
O=C(Oc1ccccc1)c1cccc2cccnc12	6.02
CCCCCCCCOC(=O)CCn1[nH]c(=O)c2ccccc2c1=O	0.0369
O=C(/C=C/c1c(F)cccc1Cl)NCCCN1CCOCC1	-5.67
COCc1cc(C)n(CC(=O)OC)c(=O)c1C#N	12.5
COc1cccc(N2CCN(C(=O)CN3C(=O)NC4(CCCC4)C3=O)CC2)c1	9.11
Cc1ccc(NC(=O)CN(C)CC(=O)N(CC(C)C)c2c(N)n(CC(C)C)c(=O)[nH]c2=O)c(C)c1	6.99
Cc1csc2ncc(C(=O)Nc3ccccc3F)c(=O)n12	5.28
Cc1[nH]n(C(N)=S)c(=O)c1N=Nc1ccc(Br)cc1	16.2
COc1cccc(C(C(=O)NC2CCCCC2)N(C(=O)c2ccco2)c2ccc(-n3cnnn3)c(C)c2)c1 (stereo not drawn)	11.5
CCN(CC)CCCNC(=S)N(CCO)Cc1cc2cc3c(cc2[nH]c1=O)OCO3	6.5
CCc1ccc(Oc2cc(Cl)nc(N)n2)cc1	16.8
CC(=O)Nc1ccccc1NC(=O)C(F)(F)F	12.9
Cc1c(-n2cc(C(=O)O)c(=O)c3cc(F)c(N4CCCC4)c(F)c32)c(=O)n(-c2ccccc2)n1C	10.4
CCN(CC)S(=O)(=O)c1cccc(C(=O)Nc2nnc(C)s2)c1	7.96
NC(=S)N/N=C/c1coc2ccccc2c1=O	14.1
Cc1cc(N2CCN(S(=O)(=O)c3ccccc3)CC2)nc2c(C)cccc12	17
Cc1cc(C(=O)N/N=C2\CCCc3ccccc32)c(C)o1	13.2
